Hit rate of the full screen: of about 310,000 compounds, about 2,200 (0.71%) showed an effect of 50% or more. Effects have a minus sign here. Some of the results follow.
biological target: human ether-à-go-go-related gene (hERG) potassium channel (human, UniProt Q12809); experiment: primary screen, population patch clamp on CHO cells stably expressing hERG
Sequence (Q12809 whole entry, looked up): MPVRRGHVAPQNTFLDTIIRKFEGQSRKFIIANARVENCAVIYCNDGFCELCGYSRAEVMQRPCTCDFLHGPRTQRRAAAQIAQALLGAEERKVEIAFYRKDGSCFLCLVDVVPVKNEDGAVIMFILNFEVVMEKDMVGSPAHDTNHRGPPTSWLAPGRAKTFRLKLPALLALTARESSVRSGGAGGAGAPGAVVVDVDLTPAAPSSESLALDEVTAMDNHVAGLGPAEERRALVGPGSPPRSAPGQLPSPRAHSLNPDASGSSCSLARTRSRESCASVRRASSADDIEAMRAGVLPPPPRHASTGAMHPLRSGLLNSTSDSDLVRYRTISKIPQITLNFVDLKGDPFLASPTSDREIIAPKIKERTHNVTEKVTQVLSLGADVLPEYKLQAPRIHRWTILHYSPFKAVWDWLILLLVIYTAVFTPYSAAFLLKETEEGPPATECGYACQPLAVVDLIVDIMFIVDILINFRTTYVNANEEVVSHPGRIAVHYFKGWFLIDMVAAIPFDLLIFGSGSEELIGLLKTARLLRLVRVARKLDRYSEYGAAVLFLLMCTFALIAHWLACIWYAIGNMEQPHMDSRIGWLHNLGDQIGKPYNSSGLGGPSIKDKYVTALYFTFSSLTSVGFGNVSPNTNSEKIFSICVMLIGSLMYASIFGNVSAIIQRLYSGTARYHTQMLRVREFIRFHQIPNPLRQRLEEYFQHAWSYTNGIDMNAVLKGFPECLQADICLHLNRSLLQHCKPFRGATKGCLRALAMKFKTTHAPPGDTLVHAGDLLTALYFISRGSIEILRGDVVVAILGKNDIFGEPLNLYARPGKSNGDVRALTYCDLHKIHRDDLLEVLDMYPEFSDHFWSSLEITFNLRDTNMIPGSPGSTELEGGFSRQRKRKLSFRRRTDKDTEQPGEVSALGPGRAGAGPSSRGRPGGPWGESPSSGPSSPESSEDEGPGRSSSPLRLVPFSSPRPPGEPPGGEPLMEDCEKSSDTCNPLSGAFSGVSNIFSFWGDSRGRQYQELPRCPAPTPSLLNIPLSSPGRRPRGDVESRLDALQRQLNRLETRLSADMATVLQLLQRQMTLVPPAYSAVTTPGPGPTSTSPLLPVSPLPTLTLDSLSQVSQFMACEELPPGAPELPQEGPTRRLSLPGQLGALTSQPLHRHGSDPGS

| SMILES | hERG current change (%, negative = inhibition) at 1uM |
| --- | --- |
| CC1CCCN(C(=O)c2ccc(NS(=O)(=O)c3ccc4[nH]c(=O)[nH]c4c3)cc2)C1 (stereo not drawn) | 12.5% |
| COc1cc(NC(=S)NN2CCN(C)CC2)cc(OC)c1 | 12.3% |
| CCOC(=O)C1CCN(C(=O)c2cc(OCC)c(OCC)c(OCC)c2)CC1 | 0.754% |
| O=C(C1=C(O)C(=O)N(Cc2ccco2)C1c1ccccc1F)c1cccs1 (stereo not drawn) | 15.4% |
| CC(=O)NCC(=O)N(C)C(C(=O)Nc1ccc(C(C)C)cc1)c1ccccc1 (stereo not drawn) | 8.76% |
| CCOC(=O)N1CCN(c2cc(N3CCOCC3)c(F)cc2[N+](=O)[O-])CC1 | 5.62% |
| CC1=CC(C)(C)NC(=S)N1c1cccc(C)c1 | 4.71% |
| COCC1CCN(Cc2cn(C)nc2-c2cccc(Cl)c2)C1 (stereo not drawn) | 4.84% |
| COC(=O)C1CCN(CCCOc2ccc(CN3CCN(c4ccc([N+](=O)[O-])cc4)CC3)cc2)CC1 | -27.7% |
| CC(=O)Nc1ccc(CN2CCc3c([nH]c4ccccc34)C2c2ccccn2)cc1 (stereo not drawn) | -11.2% |
| COC(=O)Cn1c(=NC(=O)CSC(C)=O)sc2ccccc21 | 4.33% |
| CCOC(=O)CC(=O)CSc1nc2c(cc1C#N)CCC2 | 12.3% |
| COC(=O)[C@H](CCSC)NC(=O)NC1CC1 | 18.4% |
| NC(=O)CSc1nnc(NC(=O)c2ccc3ccccc3c2)s1 | -0.774% |
| Cn1c(N)c(C(=O)CSc2nnc(-c3c[nH]c4ccccc34)n2C2CC2)c(=O)[nH]c1=O | 6.25% |
| Cc1cc(C)cc(Nc2cnn(C34CC5CC(CC(CC(=O)O)(C5)C3)C4)c(=O)c2Cl)c1 | 7.86% |
| CC(C)Oc1ccc(C(=O)Nc2ccc(S(=O)(=O)N3CCN(C)CC3)cc2)cc1 | 12.2% |
| CC1(C)Cc2nc(N3CCCC3)c(C#N)cc2CO1 | -1.56% |
| Cn1c(CN2CCOCC2)nc2cc(NC(=O)c3ccccc3Cl)ccc21 | 4.59% |
| CN(Cc1nc2ccccc2c(=O)[nH]1)C(=O)c1ccc(NC(=O)CSc2nnnn2C)cc1 | 7.58% |
| COc1ccc(CSCC(=O)N/N=C/c2ccc(OCC(=O)N3CCCCC3)cc2)cc1 | 17% |
| CCOC(=O)N1CCN(C(=O)CCn2nc(-c3ccc(Cl)cc3)ccc2=O)CC1 | -24.9% |
| COC(=O)C1=NN(C(=O)c2cccc(Cl)c2)C(O)(C(C)(C)C)C1 (stereo not drawn) | 10.4% |
| O=C1CCc2cc(S(=O)(=O)NCc3ccccc3Cl)cc3c2N1CC3 | 8.34% |
